From patent US20240076343A1 (CEPHALON, published 2024)

T1: intermediate-affinity hIL-2 receptor (IL-2Rβγ) on TF1+IL-2Rβ cells (human, UniProt P14784 27-551; P31785 23-369)
T1 sequence 1: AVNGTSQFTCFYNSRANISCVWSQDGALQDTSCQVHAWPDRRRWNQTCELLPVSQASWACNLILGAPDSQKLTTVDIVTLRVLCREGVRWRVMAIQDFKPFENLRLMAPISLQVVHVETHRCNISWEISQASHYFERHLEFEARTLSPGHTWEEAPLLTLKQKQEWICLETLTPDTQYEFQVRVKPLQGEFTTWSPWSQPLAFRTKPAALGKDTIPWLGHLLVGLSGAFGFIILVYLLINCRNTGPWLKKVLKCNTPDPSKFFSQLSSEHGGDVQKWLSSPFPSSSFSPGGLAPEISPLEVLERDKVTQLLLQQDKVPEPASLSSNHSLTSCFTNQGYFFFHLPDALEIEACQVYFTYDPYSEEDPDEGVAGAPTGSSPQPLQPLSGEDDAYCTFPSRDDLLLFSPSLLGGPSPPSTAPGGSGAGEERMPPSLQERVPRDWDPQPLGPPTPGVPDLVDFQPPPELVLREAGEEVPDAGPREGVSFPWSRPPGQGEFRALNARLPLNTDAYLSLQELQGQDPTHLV
T1 sequence 2: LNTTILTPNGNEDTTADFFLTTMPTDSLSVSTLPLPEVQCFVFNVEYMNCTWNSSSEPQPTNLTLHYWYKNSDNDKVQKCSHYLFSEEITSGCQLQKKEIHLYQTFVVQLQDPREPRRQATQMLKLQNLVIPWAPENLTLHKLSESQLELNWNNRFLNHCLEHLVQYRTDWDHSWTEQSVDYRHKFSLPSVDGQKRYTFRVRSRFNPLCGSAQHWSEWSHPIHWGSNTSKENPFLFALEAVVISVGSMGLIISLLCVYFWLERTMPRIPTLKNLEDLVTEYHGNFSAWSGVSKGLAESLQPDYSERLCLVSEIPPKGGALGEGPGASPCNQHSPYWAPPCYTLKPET

T2: high-affinity hIL-2 receptor (IL-2Rαβγ) on NK-92 cells (human, UniProt P01589 22-272; P14784 27-551; P31785 23-369)
T2 sequence 1: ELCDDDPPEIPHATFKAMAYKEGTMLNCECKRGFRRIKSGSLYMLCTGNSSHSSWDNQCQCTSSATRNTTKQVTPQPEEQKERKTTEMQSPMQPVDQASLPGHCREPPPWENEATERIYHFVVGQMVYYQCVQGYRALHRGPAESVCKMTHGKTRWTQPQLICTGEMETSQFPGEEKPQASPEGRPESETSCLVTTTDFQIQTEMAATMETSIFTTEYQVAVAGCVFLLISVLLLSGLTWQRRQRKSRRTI
T2 sequence 2: T1 sequence 1
T2 sequence 3: T1 sequence 2

B1: 2H7-hIgG1-LAGA-df-hIL-2 (T3A/R38E/D84K/C125A) (other)
heavy: EVQLLESGGGLVQPGGSLRLSCAASGFTFKDYCMTWVRQAPGKGLEWVSAIVYSGGSTYYADSVKGRFTISRDNSKNTLYLQMNNLRAEDTAVYYCAKYTRASYFYDAMDVWGQGTTVTVSS[not shown - human IgG1 constant region with L235A G237A (EU numbers)]APASSSTKKTQLQLEHLLLDLQMILNGINNYKNPKLTEMLTFKFYMPKKATELKHLQCLEEELKPLEEVLNLAQSKNFHLRPRKLISNINVIVLELKGSETTFMCEYADETATIVEFLNRWITFAQSIISTLT
light: EIVLTQSPGTLSLSPGERATLSCRASQSIGKSFLAWYQQKPGQAPRLLIYDASTRAADIPARFSGSGSGTDFTLTISSLEPEDFAVYYCQQYYDWPPLSFGGGTKVEIKRTVAAPSVFIFPPSDEQLKSGTASVVCLLNNFYPREAKVQWKVDNALQSGNSQESVTEQDSKDSTYSLSSTLTLSKADYEKHKVYACEVTHQGLSSPVTKSFNRGEC
notes: antibody-hIL-2 fusion; also called 2H7-hIgG1-LAGA-hIL-2 (T3A/R38E/D84K/C125A)
B2: 2H7-hIgG1-LAGA-df-hIL2 (T3A/R38E/I92R/C125A) (other)
heavy: EVQLLESGGGLVQPGGSLRLSCAASGFTFKDYCMTWVRQAPGKGLEWVSAIVYSGGSTYYADSVKGRFTISRDNSKNTLYLQMNNLRAEDTAVYYCAKYTRASYFYDAMDVWGQGTTVTVSS[not shown - human IgG1 constant region with L235A G237A (EU numbers)]APASSSTKKTQLQLEHLLLDLQMILNGINNYKNPKLTEMLTFKFYMPKKATELKHLQCLEEELKPLEEVLNLAQSKNFHLRPRDLISNINVRVLELKGSETTFMCEYADETATIVEFLNRWITFAQSIISTLT
light: B1 light
B3: 2H7-hIgG1-LAGA-df-hIL2 (T3A/R38E/I92E/C125A) (other)
heavy: EVQLLESGGGLVQPGGSLRLSCAASGFTFKDYCMTWVRQAPGKGLEWVSAIVYSGGSTYYADSVKGRFTISRDNSKNTLYLQMNNLRAEDTAVYYCAKYTRASYFYDAMDVWGQGTTVTVSS[not shown - human IgG1 constant region with L235A G237A (EU numbers)]APASSSTKKTQLQLEHLLLDLQMILNGINNYKNPKLTEMLTFKFYMPKKATELKHLQCLEEELKPLEEVLNLAQSKNFHLRPRDLISNINVEVLELKGSETTFMCEYADETATIVEFLNRWITFAQSIISTLT
light: B1 light
B4: 2H7-hIgG4-LE-df-hIL-2 (T3A/D20A/R38E/C125A) (other)
heavy: EVQLLESGGGLVQPGGSLRLSCAASGFTFKDYCMTWVRQAPGKGLEWVSAIVYSGGSTYYADSVKGRFTISRDNSKNTLYLQMNNLRAEDTAVYYCAKYTRASYFYDAMDVWGQGTTVTVSSASTKGPSVFPLAPCSRSTSESTAALGCLVKDYFPEPVTVSWNSGALTSGVHTFPAVLQSSGLYSLSSVVTVPSSSLGTKTYTCNVDHKPSNTKVDKRV[not shown - human IgG4 Fc with changes]APASSSTKKTQLQLEHLLLALQMILNGINNYKNPKLTEMLTFKFYMPKKATELKHLQCLEEELKPLEEVLNLAQSKNFHLRPRDLISNINVIVLELKGSETTFMCEYADETATIVEFLNRWITFAQSIISTLT
light: B1 light
notes: antibody-hIL-2 fusion; also called 2H7-hIgG4-LE-hIL-2 (T3A/D20A/R38E/C125A)
B5: 2H7-hIgG1-LAGA-df-hIL2 (T3A/R38E/D84F/C125A) (other)
heavy: EVQLLESGGGLVQPGGSLRLSCAASGFTFKDYCMTWVRQAPGKGLEWVSAIVYSGGSTYYADSVKGRFTISRDNSKNTLYLQMNNLRAEDTAVYYCAKYTRASYFYDAMDVWGQGTTVTVSS[not shown - human IgG1 constant region with L235A G237A (EU numbers)]APASSSTKKTQLQLEHLLLDLQMILNGINNYKNPKLTEMLTFKFYMPKKATELKHLQCLEEELKPLEEVLNLAQSKNFHLRPRFLISNINVIVLELKGSETTFMCEYADETATIVEFLNRWITFAQSIISTLT
light: B1 light
B6: 2H7-hIgG1-LE-df-hIL-2 (T3A/R38E/I92K/C125A) (other)
heavy: EVQLLESGGGLVQPGGSLRLSCAASGFTFKDYCMTWVRQAPGKGLEWVSAIVYSGGSTYYADSVKGRFTISRDNSKNTLYLQMNNLRAEDTAVYYCAKYTRASYFYDAMDVWGQGTTVTVSS[not shown - human IgG1 constant region with changes]APASSSTKKTQLQLEHLLLDLQMILNGINNYKNPKLTEMLTFKFYMPKKATELKHLQCLEEELKPLEEVLNLAQSKNFHLRPRDLISNINVKVLELKGSETTFMCEYADETATIVEFLNRWITFAQSIISTLT
light: B1 light
B7: 2H7-hIgG1-df-hIL-2 (T3A/R38E/I92K/C125A) (other)
heavy: EVQLLESGGGLVQPGGSLRLSCAASGFTFKDYCMTWVRQAPGKGLEWVSAIVYSGGSTYYADSVKGRFTISRDNSKNTLYLQMNNLRAEDTAVYYCAKYTRASYFYDAMDVWGQGTTVTVSS[not shown - human IgG1 constant region]APASSSTKKTQLQLEHLLLDLQMILNGINNYKNPKLTEMLTFKFYMPKKATELKHLQCLEEELKPLEEVLNLAQSKNFHLRPRDLISNINVKVLELKGSETTFMCEYADETATIVEFLNRWITFAQSIISTLT
light: B1 light
B8: 2H7-hIgG1-LAGA-df-hIL-2 (T3A/R38E/I92K/C125A) (other)
heavy: EVQLLESGGGLVQPGGSLRLSCAASGFTFKDYCMTWVRQAPGKGLEWVSAIVYSGGSTYYADSVKGRFTISRDNSKNTLYLQMNNLRAEDTAVYYCAKYTRASYFYDAMDVWGQGTTVTVSS[not shown - human IgG1 constant region with L235A G237A (EU numbers)]APASSSTKKTQLQLEHLLLDLQMILNGINNYKNPKLTEMLTFKFYMPKKATELKHLQCLEEELKPLEEVLNLAQSKNFHLRPRDLISNINVKVLELKGSETTFMCEYADETATIVEFLNRWITFAQSIISTLT
light: B1 light
notes: antibody-hIL-2 fusion; also called 2H7-hIgG1-LAGA-hIL-2 (T3A/R38E/192K/C125A)
B9: 2H7-hIgG4-LAGA-df-hIL-2 (T3A/R38E/D84K/C125A) (other)
heavy: EVQLLESGGGLVQPGGSLRLSCAASGFTFKDYCMTWVRQAPGKGLEWVSAIVYSGGSTYYADSVKGRFTISRDNSKNTLYLQMNNLRAEDTAVYYCAKYTRASYFYDAMDVWGQGTTVTVSSASTKGPSVFPLAPCSRSTSESTAALGCLVKDYFPEPVTVSWNSGALTSGVHTFPAVLQSSGLYSLSSVVTVPSSSLGTKTYTCNVDHKPSNTKVDKRV[not shown - human IgG4 Fc with S228P L235A G237A (EU numbers)]APASSSTKKTQLQLEHLLLDLQMILNGINNYKNPKLTEMLTFKFYMPKKATELKHLQCLEEELKPLEEVLNLAQSKNFHLRPRKLISNINVIVLELKGSETTFMCEYADETATIVEFLNRWITFAQSIISTLT
light: B1 light
notes: antibody-hIL-2 fusion
B10: 2H7-hIgG4-LE-df-hIL-2 (T3A/R38E/D84K/C125A) (other)
heavy: EVQLLESGGGLVQPGGSLRLSCAASGFTFKDYCMTWVRQAPGKGLEWVSAIVYSGGSTYYADSVKGRFTISRDNSKNTLYLQMNNLRAEDTAVYYCAKYTRASYFYDAMDVWGQGTTVTVSSASTKGPSVFPLAPCSRSTSESTAALGCLVKDYFPEPVTVSWNSGALTSGVHTFPAVLQSSGLYSLSSVVTVPSSSLGTKTYTCNVDHKPSNTKVDKRV[not shown - human IgG4 Fc with changes]APASSSTKKTQLQLEHLLLDLQMILNGINNYKNPKLTEMLTFKFYMPKKATELKHLQCLEEELKPLEEVLNLAQSKNFHLRPRKLISNINVIVLELKGSETTFMCEYADETATIVEFLNRWITFAQSIISTLT
light: B1 light
notes: antibody-hIL-2 fusion; also called 2H7-hIgG4-LE-hIL-2 (T3A/R38E/D84K/C125A)

Experiments:
[1] = molecular target: T1, intermediate-affinity hIL-2 receptor …; test: cell-based or functional assay
[2] = molecular target: T3, recombinant His-tagged cynomolgus PD-1 (Acro Biosystems) (cynomolgus, UniProt B0LAJ3 25-170); test: SPR Carterra LSA;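 also: antibodies or fusion proteins amine-coupled on an HC30M chip, soluble His-tagged human or cynomolgus PD-1 titrated over them, non-regenerative kinetics, constants fitted from titration curves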
T3 construct: His-tagged; also called Cyno PD-1; not shown: His tag (and any linker) of the Acro Biosystems product
T3 sequence (B0LAJ3 entry or part of it limits assumed): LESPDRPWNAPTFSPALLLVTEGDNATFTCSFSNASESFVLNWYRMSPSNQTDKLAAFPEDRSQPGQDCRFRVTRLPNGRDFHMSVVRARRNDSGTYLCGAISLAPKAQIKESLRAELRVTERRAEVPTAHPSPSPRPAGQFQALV

[3] = molecular target: T4, recombinant His-tagged human PD-1 (Acro Biosystems) (human, UniProt Q15116 fragment); test: SPR Carterra LSA;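 also: antibodies or fusion proteins amine-coupled on an HC30M chip, soluble His-tagged human or cynomolgus PD-1 titrated over them, non-regenerative kinetics, constants fitted from titration curves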
T4 construct: His-tagged; also called hPD-1
T4 sequence (Q15116 25-167 limits assumed): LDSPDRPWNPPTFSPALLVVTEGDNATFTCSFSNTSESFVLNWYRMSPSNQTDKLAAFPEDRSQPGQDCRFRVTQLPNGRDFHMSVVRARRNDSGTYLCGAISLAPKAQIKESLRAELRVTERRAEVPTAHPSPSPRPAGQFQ

[4] = molecular target: T2, high-affinity hIL-2 receptor (IL-2Rαβγ) …; test: cell-based or functional assay
[5] = molecular target: T1, intermediate-affinity hIL-2 receptor …; test: cell-based or functional assay; remark: listed apart in the source

Binder	Fold decrease from rhIL-2 (TF1 + IL-2Rβ + hPD-1) [1]	Kd [2]	koff [2]	kon [2]	Kd [3]	koff [3]	kon [3]	Fold change from rhIL-2 (NK-92) [4]	Fold change from rhIL-2 (TF1 + IL-2Rβ) [5]	Agonistic Activity (NK-92) [4]
B1	~1 fold	13 nM	0.001 s⁻¹	76000 M⁻¹ s⁻¹	6.2 nM	0.00081 s⁻¹	130000 M⁻¹ s⁻¹	–	–	–
B2	~0 fold	–	–	–	–	–	–	75 fold	89 fold	–
B3	~2 fold	–	–	–	–	–	–	118 fold	53 fold	–
B4	–	11 nM	0.001 s⁻¹	90000 M⁻¹ s⁻¹	4.3 nM	0.00081 s⁻¹	190000 M⁻¹ s⁻¹	> 10000 fold	> 10000 fold	–
B5	~0 fold	–	–	–	–	–	–	6200 fold	3920 fold	–
B6	~1 fold	–	–	–	–	–	–	319 fold	656 fold	–
B7	~1 fold	–	–	–	–	–	–	370 fold	160 fold	–
B8	–	11 nM	0.00097 s⁻¹	91000 M⁻¹ s⁻¹	4.3 nM	0.00078 s⁻¹	180000 M⁻¹ s⁻¹	–	–	–
B9	–	13 nM	0.001 s⁻¹	81000 M⁻¹ s⁻¹	4.4 nM	0.00073 s⁻¹	170000 M⁻¹ s⁻¹	–	–	–
B10	–	8.2 nM	0.0011 s⁻¹	130000 M⁻¹ s⁻¹	4.7 nM	0.00094 s⁻¹	200000 M⁻¹ s⁻¹	–	–	90%
